Source: the supplement of paper PMC11876631
Changes are numbered by the printed parent chain. Names and notes keep the numbering of the source. ± gives the standard deviation of the averaged measurements. Laboratory Escherichia coli strains with one amino-acid change in an essential protein, pooled on minimal glucose agar with carbenicillin or gentamicin at twice the control MIC (plus kanamycin and chloramphenicol for the plasmids), 48 h. Fold change of barcode share against drug-free plates; higher = less susceptible. Active = above 20 in both replicates (the paper's putatively resistant). '<' = one read or none on drug, '>' = one read or none on a drug-free plate. Shares are relative, so most strains fall below 1 when a few take over. Listed are strains with at least 15 reads on both drug-free plates, and hits; most hits rest on fewer reference reads. Replicate rank correlation about 0.5. Edits are read from barcodes.

Biological target: Escherichia coli (laboratory strain)
Assay: barcode share on antibiotic plates over drug-free plates; higher = less susceptible
Procedure: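 A pool of E. coli strains, each edited to carry one amino-acid change in an essential protein, was grown for 48 h on minimal glucose agar with or without antibiotic; strain barcodes were sequenced; mean of two replicates.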

[1] = antibiotic: carbenicillin, 2× MIC (3.1 µg/mL)
[2] = antibiotic: gentamicin, 2× MIC (MIC 0.45 µg/mL)

B1: cysB V171W (protein)
chain: MKLQQLRYIVEVVNHNLNVSSTAEGLYTSQPGISKQVRMLEDELGIQIFSRSGKHLTQVTPAGQEIIRIAREVLSKVDAIKSVAGEHTWPDKGSLYIATTHTQARYALPNVIKGFIERYPRVSLHMHQGSPTQIADAVSKGNADFAIATEALHLYEDLVMLPCYHWNRAIWVTPDHPLAGKKAITIEELAQYPLVTYTFGFTGRSELDTAFNRAGLTPRIVFTATDADVIKTYVRLGLGVGVIASMAVDPVADPDLVRVDAHDIFSHSTTKIGFRRSTFLRSYMYDFIQRFAPHLTRDVVDAAVALRSNEEIEVMFKDIKLPEK
fold change of barcode share [1]: 0.198 ± 0.0059
fold change of barcode share [2]: 0.0445 ± 0.055

B2: cysB V172A (protein)
chain: B1 chain with W171V, V172A
fold change of barcode share [1]: 0.21 ± 0.023
fold change of barcode share [2]: 0.0181 ± 0.01

B3: cysB V172W (protein)
chain: B1 chain with W171V, V172W
fold change of barcode share [1]: 0.454 ± 0.49
fold change of barcode share [2]: < 0.0124

B4: cysB V172Q (protein)
chain: B1 chain with W171V, V172Q
fold change of barcode share [1]: 0.263 ± 0.1
fold change of barcode share [2]: 0.072 ± 0.046

B5: cysB V172P (protein)
chain: B1 chain with W171V, V172P
fold change of barcode share [1]: 0.54 ± 0.072

B6: cysB V221A (protein)
chain: B1 chain with W171V, V221A
fold change of barcode share [1]: 0.517 ± 0.11
fold change of barcode share [2]: 0.01493 ± 7.1e-05

B7: cysB V221Q (protein)
chain: B1 chain with W171V, V221Q
fold change of barcode share [1]: 0.237 ± 0.12
fold change of barcode share [2]: 0.00915 ± 0.0032
